# Measured values from patent publication US11420968B2 (priority 2018, dated 2022).
# Like-named read-outs stand apart in the source and are kept apart here.
# What was measured:
# RS4;11 cells = experiment: cells; settings: Homo sapiens
# Molt-4 cells = experiment: cells; settings: Homo sapiens
# [1] = RS4-11, 48 h, read-out: Cellular activity (IC50, nM) RS4;11
# [2] = MOLT-4, read-out: Cellular activity (IC50, nM) Molt-4
# [3] = RS4-11, read-out: Celluclar activity (IC50, nM) RS 4, 11
# [4] = MOLT-4, read-out: Celluclar activity (IC50, nM) Molt-4
Compound,IC50 (RS4;11 cells; [1]),IC50 (Molt-4 cells; [2]),IC50 (RS4;11 cells; [3]),IC50 (Molt-4 cells; [4]),"IC50 (RS4;11 cells; RS4-11, read-out: Cellular activity (IC50, nM) RS4, 11)"
"CCCc1ccccc1[C@@H]1CCCN1C1CC2(CCN(c3ccc(C(=O)NS(=O)(=O)c4ccc(NC[C@H]5CC[C@](C)(O)CC5)c([N+](=O)[O-])c4)c(Oc4cnc5[nH]ccc5c4)c3)CC2)C1 [Example F105, 2-((1H-pyrrolo[2,3-b]pyridin-5-yl)oxy)-N-((4-((((1r,4r)-4-hydroxy-4-methylcyclohexyl)methyl)amino)-3-nitrophenyl)sulfonyl)-4-(2-((S)-2-(2-propylphenyl)pyrrolidin-1-yl)-7-azaspiro[3.5]nonan-7-yl)benzamide]",11 nM,7700 nM,–,–,–
"O=C(NS(=O)(=O)c1ccc(NC[C@H]2COCCO2)c([N+](=O)[O-])c1)c1ccc(N2CC3(CC(N4CCC[C@H]4c4ccccc4C4CC4)C3)C2)cc1Oc1cnc2[nH]ccc2c1 [Example F107, N-((4-((((S)-1,4-dioxan-2-yl)methyl)amino)-3-nitrophenyl)sulfonyl)-2-((1H-pyrrolo[2,3-b]pyridin-5-yl)oxy)-4-(6-((S)-2-(2-cyclopropylphenyl)pyrrolidin-1-yl)-2-azaspiro[3.3]heptan-2-yl)benzamide]",0.9 nM,1020 nM,–,–,–
"O=C(NS(=O)(=O)c1ccc(NC[C@@H]2COCCO2)c([N+](=O)[O-])c1)c1ccc(N2CC3(CC(N4CCC[C@H]4c4ccccc4C4CC4)C3)C2)cc1Oc1cnc2[nH]ccc2c1 [Example F108, N-((4-((((R)-1,4-dioxan-2-yl)methyl)amino)-3-nitrophenyl)sulfonyl)-2-((1H-pyrrolo[2,3-b]pyridin-5-yl)oxy)-4-(6-((S)-2-(2-cyclopropylphenyl)pyrrolidin-1-yl)-2-azaspiro[3.3]heptan-2-yl)benzamide]",1.1 nM,1190 nM,–,–,–
"CC(C)c1ccccc1[C@@H]1CCCN1C1CC2(C1)CN(c1ccc(C(=O)NS(=O)(=O)c3ccc(NC[C@H]4CC[C@](C)(O)CC4)c([N+](=O)[O-])c3)c(Oc3cnc4[nH]ccc4c3)c1)C2 [Example F109, 2-((1H-pyrrolo[2,3-b]pyridin-5-yl)oxy)-N-((4-((((1r,4r)-4-hydroxy-4-methylcyclohexyl)methyl)amino)-3-nitrophenyl)sulfonyl)-4-(6-((S)-2-(2-isopropylphenyl)pyrrolidin-1-yl)-2-azaspiro[3.3]heptan-2-yl)benzamide]",1.2 nM,3850 nM,1.2 nM,3850 nM,–
"CC(C)c1ccccc1[C@@H]1CCCN1C1CC2(C1)CN(c1ccc(C(=O)NS(=O)(=O)c3ccc(NC[C@H]4COCCO4)c([N+](=O)[O-])c3)c(Oc3cnc4[nH]ccc4c3)c1)C2 [Example F110, N-((4-((((S) 1,4-dioxan-2-yl)methyl)amino)-3-nitrophenyl)sulfonyl)-2-((1H-pyrrolo[2,3-b]pyridin-5-yl)oxy)-4(6-((S)-2-(2-isopropylphenyl)pyrrolidin-1-yl)-2-azaspiro[3.3]heptan-2-yl)benzamide]",2.7 nM,2560 nM,–,–,–
"CCc1ccccc1[C@@H]1CCCN1C1CC2(C1)CN(c1ccc(C(=O)NS(=O)(=O)c3ccc(NC[C@H]4CC[C@](C)(O)CC4)c([N+](=O)[O-])c3)c(Oc3cnc4[nH]ccc4c3)c1)C2 [Example F111, 2-((1H-pyrrolo[2,3-b]pyridin-5-yl)oxy)-4-(6-((S)-2-(2-ethylphenyl)pyrrolidin-1-yl)-2-azaspiro[3.3]heptan-2-yl)-N-((4-((((1r,4r)-4-hydroxy-4-methylcyclohexyl)methyl)amino)-3-nitrophenyl)sulfonyl)benzamide]",0.4 nM,1660 nM,0.4 nM,1660 nM,–
"CCc1ccccc1[C@@H]1CCCN1C1CC2(C1)CN(c1ccc(C(=O)NS(=O)(=O)c3ccc(NC[C@H]4COCCO4)c([N+](=O)[O-])c3)c(Oc3cnc4[nH]ccc4c3)c1)C2 [Example F112, N-((4-((((S)-1,4-dioxan-2-yl)methyl)amino)-3-nitrophenyl)sulfonyl)-2-((1H-pyrrolo[2,3-b]pyridin-5-yl)oxy)-4-(6-((S)-2-(2-ethylphenyl)pyrrolidin-1-yl)-2-azaspiro[3.3]heptan-2-yl) benzamide]",0.7 nM,871 nM,–,–,–
"O=C(NS(=O)(=O)c1ccc(NCC2CCOCC2)c([N+](=O)[O-])c1)c1ccc(N2CC3(CN(CC4CCCN4c4ccccc4C4CC4)C3)C2)cc1Oc1cnc2[nH]ccc2c1 (centres unmarked) [Example F114, 2-((1H-pyrrolo[2,3-b]pyridin-5-yl)oxy)-4-(6-((1-(2-cyclopropylphenyl)pyrrolidin-2-yl)methyl)-2,6-diazaspiro[3.3]heptan-2-yl)-N-((3-nitro-4-(((tetrahydro-2H-pyran-4-yl)methyl)amino)phenyl)sulfonyl)benzamide]",152 nM,2960 nM,–,–,152 nM
"O=C(NS(=O)(=O)c1ccc(NCCC2CCOCC2)c([N+](=O)[O-])c1)c1ccc(N2CCC3(CC2)CC(N2CCC[C@H]2c2ccccc2C2CC2)C3)cc1Oc1cnc2[nH]ccc2c1 [Example F116, (S)-2-((1H-pyrrolo[2,3-b]pyridin-5-yl)oxy)-4-(2-(2-(2-cyclopropylphenyl)pyrrolidin-1-yl)-7-azaspiro[3.5]nonan-7-yl)-N-((3-nitro-4-((2-(tetrahydro-2H-pyran-4-yl)ethyl)amino)phenyl)sulfonyl)benzamide]",5.4 nM,4710 nM,–,–,–
"O=C(NS(=O)(=O)c1ccc(NCCN2CCOCC2)c([N+](=O)[O-])c1)c1ccc(N2CCC3(CC2)CC(N2CCC[C@H]2c2ccccc2C2CC2)C3)cc1Oc1cnc2[nH]ccc2c1 [Example F117, (S)-2-((1H-pyrrolo[2,3-b]pyridin-5-yl)oxy)-4-(2-(2-(2-cyclopropylphenyl)pyrrolidin-1-yl)-7-azaspiro[3.5]nonan-7-yl)-N-((4-((2-morpholinoethyl)amino)-3-nitrophenyl)sulfonyl)benzamide]",6.5 nM,1460 nM,–,–,–
"O=C(NS(=O)(=O)c1ccc(NCCN2CCOCC2=O)c([N+](=O)[O-])c1)c1ccc(N2CCC3(CC2)CC(N2CCC[C@H]2c2ccccc2C2CC2)C3)cc1Oc1cnc2[nH]ccc2c1 [Example F118, (S)-2-((1H-pyrrolo[2,3-b]pyridin-5-yl)oxy)-4-(2-(2-(2-cyclopropylphenyl)pyrrolidin-1-yl)-7-azaspiro[3.5]nonan-7-yl)-N-((3-nitro-4-((2-(3-oxomorpholino)ethyl)amino)phenyl)sulfonyl)benzamide]",120 nM,> 10000 nM,–,–,–
"O=C(NS(=O)(=O)c1ccc(NCC2C3COCC23)c([N+](=O)[O-])c1)c1ccc(N2CCC3(CC2)CC(N2CCC[C@H]2c2ccccc2C2CC2)C3)cc1Oc1cnc2[nH]ccc2c1 (stereo partly drawn) [Example F119, 2-((1H-pyrrolo[2,3-b]pyridin-5-yl)oxy)-N-((4-(((3-oxabicyclo[3.1.0]hexan-6-yl)methyl)amino)-3-nitrophenyl)sulfonyl)-4-(2-((S)-2-(2-cyclopropylphenyl)pyrrolidin-1-yl)-7-azaspiro[3.5]nonan-7-yl)benzamide]",2.1 nM,2800 nM,–,–,–
"CC1CC(CNc2ccc(S(=O)(=O)NC(=O)c3ccc(N4CCC5(CC4)CC(N4CCC[C@H]4c4ccccc4C4CC4)C5)cc3Oc3cnc4[nH]ccc4c3)cc2[N+](=O)[O-])CC(C)O1 (stereo partly drawn) [Example F120, 2-((1H-pyrrolo[2,3-b]pyridin-5-yl)oxy)-4-(2-((S)-2-(2-cyclopropylphenyl)pyrrolidin-1-yl)-7-azaspiro[3.5]nonan-7-yl)-N-((4-(((2,6-dimethyltetrahydro-2H-pyran-4-yl)methyl)amino)-3-nitrophenyl)sulfonyl)benzamide]",2.7 nM,2520 nM,2.7 nM,2520 nM,–
"CC1(C)CC(CNc2ccc(S(=O)(=O)NC(=O)c3ccc(N4CCC5(CC4)CC(N4CCC[C@H]4c4ccccc4C4CC4)C5)cc3Oc3cnc4[nH]ccc4c3)cc2[N+](=O)[O-])CC(C)(C)O1 [Example F121, (S)-2-((1H-pyrrolo[2,3-b]pyridin-5-yl)oxy)-4-(2-(2-(2-cyclopropylphenyl)pyrrolidin-1-yl)-7-azaspiro[3.5]nonan-7-yl)-N-((3-nitro-4-(((2,2,6,6-tetramethyltetrahydro-2H-pyran-4-yl)methyl)amino)phenyl)sulfonyl)benzamide]",10 nM,4580 nM,–,–,–
"C[C@]1(O)CC[C@H](CNc2ccc(S(=O)(=O)NC(=O)c3ccc(N4CCC5(CC(N6CCC[C@H]6c6ccccc6C6CC6)C5)C4)cc3Oc3cnc4[nH]ccc4c3)cc2[N+](=O)[O-])CC1 (stereo partly drawn) [Example F122, 2-((1H-pyrrolo[2,3-b]pyridin-5-yl)oxy)-4-(2-((S)-2-(2-cyclopropylphenyl)pyrrolidin-1-yl)-6-azaspiro[3.4]octan-6-yl)-N-((4-((((1r,4r)-4-hydroxy-4-methylcyclohexyl)methyl)amino)-3-nitrophenyl)sulfonyl)benzamide]",57 nM,> 10000 nM,–,–,–
"C[C@]1(O)CC[C@H](CNc2ccc(S(=O)(=O)NC(=O)c3ccc(N4CC5(CCC(N6CCC[C@H]6c6ccccc6C6CC6)C5)C4)cc3Oc3cnc4[nH]ccc4c3)cc2[N+](=O)[O-])CC1 (stereo partly drawn) [Example F123, 2-((1H-pyrrolo[2,3-b]pyridin-5-yl)oxy)-4-(6-((S)-2-(2-cyclopropylphenyl)pyrrolidin-1-yl)-2-azaspiro[3.4]octan-2-yl)-N-((4-((((1r,4r)-4-hydroxy-4-methylcyclohexyl)methyl)amino)-3-nitrophenyl)sulfonyl)benzamide]",28.8 nM,> 10000 nM,–,–,–
"C[C@]1(O)CC[C@H](CNc2ccc(S(=O)(=O)NC(=O)c3ccc(C4=CCC5(CC4)CC(N4CCC[C@H]4c4ccccc4C4CC4)C5)cc3Oc3cnc4[nH]ccc4c3)cc2[N+](=O)[O-])CC1 (stereo partly drawn) [Example F125, 2-((1H-pyrrolo[2,3-b]pyridin-5-yl)oxy)-4-(2-((S)-2-(2-cyclopropylphenyl)pyrrolidin-1-yl)spiro[3.5]non-6-en-7-yl)-N-((4-((((1r,4r)-4-hydroxy-4-methylcyclohexyl)methyl)amino)-3-nitrophenyl)sulfonyl)benzamide]",30 nM,> 10000 nM,–,–,–
